A compilation of properties of binary mixtures (doi:10.1016/j.molliq.2015.06.041)
Some of these densities may be calculated back from excess volumes.

Experiment: xn = mol fraction of the nth substance listed
Conditions: 100 kPa

C1CCOC1 + C1CC(=O)OC1
x1 = 1
Conditions | mass density [kg/m3]
293.15 K | 887.1
298.15 K | 881.6
303.15 K | 876.1
308.15 K | 870.6
313.15 K | 865
323.15 K | 853.8

CC#N + C1CC(=O)OC1
x1 = 1
Conditions | mass density [kg/m3]
293.15 K | 782.3
298.15 K | 776.9
303.15 K | 771.5
308.15 K | 766
313.15 K | 760.5
318.15 K | 755
323.15 K | 749.4
328.15 K | 743.8
333.15 K | 738.2

COC(=O)OC + C1CC(=O)OC1
x1 = 1
Conditions | mass density [kg/m3]
293.15 K | 1069.8
298.15 K | 1063.2
303.15 K | 1056.6
308.15 K | 1050
323.15 K | 1029.8
333.15 K | 1016.2

O=C1CCCO1 + C1CCOC1
mass density [kg/m3]
Conditions | x2 = 0 | x2 = 0.1009 | x2 = 0.2003 | x2 = 0.3008 | x2 = 0.4004 | x2 = 0.4916 | x2 = 0.5991 | x2 = 0.6997 | x2 = 0.8 | x2 = 0.8997
293.15 K | 1128.7 | 1106.7 | 1082.8 | 1058.9 | – | – | 984.2 | – | 935.5 | 910.7
298.15 K | 1123.8 | 1101.8 | 1077.8 | 1053.9 | 1029.7 | 1007.6 | 979 | 955.1 | 930.2 | 905.3
303.15 K | 1118.9 | 1096.9 | 1072.9 | 1048.9 | 1024.7 | 1002.5 | 973.8 | 949.8 | 924.9 | –
308.15 K | 1114 | 1091.9 | – | 1043.9 | 1019.6 | – | 968.6 | 944.5 | 919.5 | 894.5
313.15 K | – | 1087 | 1062.9 | 1038.8 | 1014.5 | 992.2 | – | 939.2 | 914.1 | 889
318.15 K | 1104.1 | – | – | 1033.8 | – | – | 958.2 | 933.9 | 908.7 | 883.5
323.15 K | 1099.2 | – | – | 1028.7 | – | 981.9 | 952.9 | 928.6 | 903.3 | 877.9

O=C1CCCO1 + CC#N
mass density [kg/m3]
Conditions | x2 = 0 | x2 = 0.1054 | x2 = 0.1934 | x2 = 0.3007 | x2 = 0.4029 | x2 = 0.5036 | x2 = 0.6012 | x2 = 0.702 | x2 = 0.8008 | x2 = 0.8993
293.15 K | 1128.7 | 1106.8 | – | 1056.2 | 1026.5 | 994.1 | 960 | 919.4 | – | 832.5
298.15 K | 1123.8 | 1101.9 | 1080.1 | 1051.1 | 1021.5 | – | 954.8 | – | 872.8 | 827.1
303.15 K | 1118.9 | 1096.9 | – | 1046.1 | 1016.4 | 983.8 | 949.6 | 908.9 | – | 821.8
308.15 K | 1114 | – | 1070.2 | 1041.1 | 1011.3 | 978.7 | 944.4 | 903.6 | 862.1 | 816.4
313.15 K | 1109 | 1087 | – | 1036 | 1006.2 | 973.5 | 939.2 | 898.3 | – | 810.9
318.15 K | 1104.1 | 1082.1 | 1060.2 | 1031 | 1001 | 968.3 | 934 | 893 | 851.4 | 805.5
323.15 K | 1099.2 | 1077.1 | 1055.2 | 1025.9 | 995.9 | 963.1 | 928.7 | 887.7 | 846 | 800
328.15 K | 1094.3 | 1072.2 | 1050.1 | 1020.8 | 990.8 | 957.9 | 923.4 | – | 840.5 | –
333.15 K | 1089.3 | 1067.2 | – | 1015.7 | 985.6 | 952.7 | 918.1 | 876.9 | 835.1 | –

O=C1CCCO1 + COC(=O)OC
mass density [kg/m3]
Conditions | x2 = 0 | x2 = 0.1013 | x2 = 0.2013 | x2 = 0.3001 | x2 = 0.4006 | x2 = 0.5 | x2 = 0.5986 | x2 = 0.6999 | x2 = 0.7989 | x2 = 0.8995
293.15 K | 1128.7 | – | 1119.1 | 1113.9 | 1108.3 | 1102.5 | 1096.4 | 1090.3 | 1083.8 | –
298.15 K | 1123.8 | 1119.3 | 1113.9 | – | 1102.8 | 1096.8 | 1090.6 | 1084.4 | 1077.6 | –
303.15 K | 1118.9 | – | – | 1103.3 | – | 1091.2 | 1084.8 | 1078.4 | 1071.4 | 1064.3
308.15 K | 1114 | 1109.2 | 1103.5 | 1098 | 1091.9 | 1085.5 | 1079 | 1072.4 | 1065.2 | 1057.8
313.15 K | 1109 | – | – | 1092.6 | – | – | 1073.1 | 1066.3 | 1059 | 1051.4
318.15 K | 1104.1 | 1099.1 | – | 1087.3 | 1080.9 | 1074.2 | 1067.3 | 1060.3 | 1052.7 | –
323.15 K | 1099.2 | 1094 | 1088 | 1082 | 1075.4 | 1068.5 | 1061.4 | 1054.2 | 1046.5 | –
328.15 K | 1094.3 | 1089 | 1082.8 | 1076.6 | 1069.8 | – | 1055.5 | 1048.1 | 1040.1 | 1031.9
333.15 K | – | 1083.9 | 1077.6 | 1071.2 | 1064.3 | 1057.1 | 1049.6 | 1042 | 1033.8 | 1025.3
